Experimental data published in publication PMC4336329 (PLoS ONE, 2015).
About 14,000 (4.5%) of roughly 310,000 compounds showed an effect of 50% or more. Effects have a minus sign here. The list shows a part of the results.

Each molecule was assayed against human ether-à-go-go-related gene (hERG) potassium channel (human, UniProt Q12809) (assay: primary screen, population patch clamp on CHO cells stably expressing hERG).
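Further: peak tail current of the secondary pulse compared with the same well before compound.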

Sequence of human ether-à-go-go-related gene (hERG) potassium channel (Q12809 whole entry, looked up): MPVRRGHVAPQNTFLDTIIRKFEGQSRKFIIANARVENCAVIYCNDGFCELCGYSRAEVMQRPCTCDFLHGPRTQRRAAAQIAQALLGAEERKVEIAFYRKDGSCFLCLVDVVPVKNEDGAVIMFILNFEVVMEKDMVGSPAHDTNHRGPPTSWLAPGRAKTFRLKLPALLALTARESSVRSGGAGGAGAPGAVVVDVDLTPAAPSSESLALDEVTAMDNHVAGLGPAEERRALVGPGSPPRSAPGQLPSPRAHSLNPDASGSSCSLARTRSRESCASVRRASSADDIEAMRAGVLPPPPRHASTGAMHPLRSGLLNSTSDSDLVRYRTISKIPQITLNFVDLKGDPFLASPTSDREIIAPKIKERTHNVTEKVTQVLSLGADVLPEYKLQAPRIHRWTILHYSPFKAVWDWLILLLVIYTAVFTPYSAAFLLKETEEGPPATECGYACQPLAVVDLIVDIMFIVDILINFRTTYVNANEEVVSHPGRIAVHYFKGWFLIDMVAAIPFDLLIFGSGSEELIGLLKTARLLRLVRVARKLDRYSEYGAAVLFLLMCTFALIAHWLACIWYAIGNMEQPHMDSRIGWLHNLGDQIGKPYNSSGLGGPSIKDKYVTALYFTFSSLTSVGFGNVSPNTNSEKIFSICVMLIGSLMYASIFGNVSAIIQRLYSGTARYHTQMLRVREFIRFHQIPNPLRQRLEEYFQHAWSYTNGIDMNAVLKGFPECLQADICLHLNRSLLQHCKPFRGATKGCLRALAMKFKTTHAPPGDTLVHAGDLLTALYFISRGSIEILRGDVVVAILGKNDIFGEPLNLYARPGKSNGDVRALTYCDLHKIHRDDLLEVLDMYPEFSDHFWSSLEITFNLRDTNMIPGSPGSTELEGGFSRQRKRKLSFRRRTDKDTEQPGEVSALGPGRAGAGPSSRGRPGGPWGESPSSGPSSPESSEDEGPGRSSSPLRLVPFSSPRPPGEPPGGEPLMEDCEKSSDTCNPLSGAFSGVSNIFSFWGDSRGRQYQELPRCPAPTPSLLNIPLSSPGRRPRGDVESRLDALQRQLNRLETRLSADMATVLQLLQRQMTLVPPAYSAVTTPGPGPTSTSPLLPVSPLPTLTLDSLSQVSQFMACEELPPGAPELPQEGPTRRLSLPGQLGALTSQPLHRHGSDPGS

Compound | hERG current change (%, negative = inhibition) at 10uM
CC1CCCC(C)N1C(=O)CSc1nnnn1-c1cccc2c1CCCC2 (stereo not drawn) | -15.3%
CCC1CN(C(=O)NCc2ccc(F)cc2)c2ccccc2O1 (stereo not drawn) | -15.6%
CC1CCc2sc(C(=O)OC(C)C(=O)Nc3ncc(Cl)cc3Cl)cc2C1 (stereo not drawn) | 4.96%
N#Cc1cccc(S(=O)(=O)NCC(=O)OCC(=O)NCc2ccccc2)c1 | 2.73%
O=C(NC1CCCC1)C(c1ccc(Cl)cc1)N1CCN(C2CCCCC2)CC1 (stereo not drawn) | -59.3%
CC/C(=N\NS(=O)(=O)c1ccc(C)cc1)c1ccco1 | 9.65%
O=c1[nH]c(CN2CCN(c3ccccc3O)CC2)nc2scc(-c3ccccc3Cl)c12 | -5.68%
Cc1ccc(SCC(=O)OCC(=O)NC(C)c2ccc(F)cc2)cc1 (stereo not drawn) | 6.96%
CN(C)/C=N/S(=O)(=O)c1cccn1-c1ncc(C(F)(F)F)cc1Cl | -5.99%
CN1C(=O)NC(NS(=O)(=O)c2ccc(N)cc2)(C(F)(F)F)C1=O (stereo not drawn) | 31.7%
Cc1ccc(-n2nc3c(=O)n(CC(=O)NCc4ccccc4)nc(C)c3c2C)cc1 | 7.43%
OC(c1nc2ccccc2[nH]1)C(O)c1nc2ccccc2[nH]1 (stereo not drawn) | 15.1%
CCCSC1=NN2CCCC(=O)N=C2S1 | 18%
O=C(NCCc1cn2ccsc2n1)C1CCCCC1 | -0.622%
COc1ccc(C2/C(=C(/O)c3ccccc3)C(=O)C(=O)N2c2ccccn2)cc1OC (stereo not drawn) | 18.2%
O=C(c1cn(Cc2ccccc2F)c2ncccc12)C(F)(F)F | 16.6%
Cc1ccc(C)c(S(=O)(=O)Nc2ccc3oc(C)c(C(=O)O)c3c2)c1 | 9.25%
CC(=O)N1CCC2(CC1)CC(=O)c1cc(OCC(=O)N3CCC4(CC3)OCCO4)ccc1O2 | 18.5%
Cc1ccc(NC(=O)CN(C)C(=O)c2cccnc2Nc2cccc(C(F)(F)F)c2)cc1 | 6.71%
CN1CCN(C(=O)C2CCN(S(=O)(=O)c3ccccc3[N+](=O)[O-])CC2)CC1 | 5.28%
Cc1ccccc1Oc1nc2ccccn2c(=O)c1/C=C(\C#N)C(=O)Nc1c(C)n(C)n(-c2ccccc2)c1=O | 18.7%
COc1ccc(/C=N/NC(=O)Nc2cccc3nsnc23)cc1 | 4.86%

Compound | hERG current change (%, negative = inhibition) at 10uM
O=C(O)CCn1c(=O)[nH]c(=O)n(CCC(=O)O)c1=O | 21.5%
CCCCCCc1cc2cc(C(=O)Nc3ccccc3)c(=O)oc2cc1O | 0.167%
O=C(O)C1Nc2c(Cl)cc(Cl)cc2C2C=CCC12 (stereo not drawn) | 19%
COc1cccc(N2CCN(C(=O)c3ccc(CS(=O)Cc4ccc(Cl)cc4)o3)CC2)c1 (stereo not drawn) | -41.8%
COc1ccc(CN2CCN(Cc3ccccc3F)CC2)c(OC)c1.O=C(O)C(=O)O | -68.5%
COc1ccc(C(=O)Nc2nnc(Cc3ccc(OC)c(OC)c3)s2)cc1 | 13.2%
COc1ccc(/C=N/N=C2/NC(=O)C(c3ccccc3)S2)c(OC)c1 (stereo not drawn) | 26.5%
COc1cccc(CNC(=O)CC2C(=O)NCCN2Cc2ccoc2)c1OC (stereo not drawn) | 17.4%
C/C(=C/c1ccccc1)C(=O)N1CCC(C)CC1 | -2.42%
CCc1cc2cc3c(cc2nc1SCC(=O)Nc1c[nH]c(=O)[nH]c1=O)OCO3 | -0.909%
COc1ccc(Cc2nnc(NC(=O)Nc3ccccc3)s2)cc1OC | 15.3%
CC(C)CN1CCN(CCCc2ccccc2)C(CCO)C1 (stereo not drawn) | -35.5%
CCN1CCN(C(=S)NCCc2ccccc2)CC1.O=C(O)C(=O)O | -15.1%
COc1cc(C2c3sc(=O)[nH]c3SC3C(=O)N(c4ccc(C)cc4)C(=O)C32)ccc1O (stereo not drawn) | 1.86%
O=C(c1cc2ccccc2o1)N1CC=C(c2ccccc2)CC1 | 10.4%
Cc1ccccc1Oc1nc2c(c(=O)n(C)c(=O)n2C)n1C | 7.08%
COc1cccc(-c2nc(NCC3CCCO3)c3ccccc3n2)c1O (stereo not drawn) | -21.2%
CN1C(=S)SC(C)(C)C1NO (stereo not drawn) | 2.67%
Cc1ccc(S(=O)(=O)N2CCOCC2)cc1C(=O)OCC(=O)c1ccc[nH]1 | -4.46%
Cc1ccc(-c2nc(-c3ccccc3)no2)c(Cl)c1 | 2.36%
Cc1cccc2nc(CSc3nc4ccc([N+](=O)[O-])cc4[nH]3)cn12 | -4.2%
CCCCn1c(N)c(N(CCOC)C(=O)Cn2c(=O)oc3ccccc32)c(=O)[nH]c1=O | 6.43%

Compound | hERG current change (%, negative = inhibition) at 10uM
c1coc(CNc2nc3ccccc3n2CCN2CCOCC2)c1 | -33.2%
COCCNC(=O)c1cccc(OC2CCN(Cc3ccc(C(C)C)cc3)CC2)c1 | -70.7%
CCCC(O)(c1ccc(Cl)cc1)C(CN1CCOCC1)c1ccc(Cl)cc1.Cl (stereo not drawn) | 0.717%
CCN(c1ccccc1)S(=O)(=O)c1ccc(Oc2ccc(-n3ccnc3)cc2)nc1 | -77.4%
COc1cccc(C(=O)Nc2cc3c(cc2C(C)=O)OCCO3)c1 | -8.73%
CCOC(=O)c1sc(NC(=O)c2cc3n(n2)C(C(F)(F)F)CC(c2ccccc2)N3)c(C(=O)OCC)c1C (stereo not drawn) | 21.2%
Cc1ccc(S(=O)(=O)N2C(=O)CCC2C(=O)NCc2ccco2)cc1 (stereo not drawn) | 9.17%
Cc1ccc(/C(N)=N/OC(=O)Oc2ccccc2)cc1 | 6.28%
Cc1cc(N2CCOCC2)nc2ccc(NC(=O)CCC(=O)N3CCC(C)CC3)cc12 | -2.73%
COc1ccc(CNc2cc(C)ccc2C)c(OC)c1OC | -15.1%
CN(C)Cc1c(C(=O)N/N=C/c2ccc(OCc3ccc(F)cc3)cc2)nnn1-c1nonc1N | 18.9%
CCOC(=O)C1=C(N)OC2=C(C(=O)CC(C)(C)C2)C1c1ccccc1OCC#N (stereo not drawn) | 2.57%
CCOC(=O)[C@H]1[C@H]2COc3ccc(Br)cc3[C@@H]2N2C(=O)c3ccc(C)cc3NC(=O)[C@@]12C | 14.3%
O=S(=O)(Nc1ccccn1)c1cnc(Cl)c(Br)c1 | -2.25%
COc1ccc(N2C(=O)N3[C@H](c4cccc(C)c4)[C@@H]4C(=O)N(Cc5ccccc5)C(=O)[C@@H]4[C@]3(Cc3ccccc3)C2=O)cc1 | 5.36%
CCn1c(SCC(=O)N/N=C/c2ccc(O)c(OC)c2)nc2ccccc21 | 2.36%
COC(=O)c1cc(C)sc1NC(=O)CCCC(=O)O | 27.3%
N#Cc1c(NC(=O)CSc2ncccn2)oc(-c2ccccc2)c1-c1ccccc1 | 25.2%
NC(=O)CN1CCN(CCN2C(=O)c3cccc4cccc(c34)C2=O)CC1 | -5.61%
Cc1cccc(C2Nc3ccccc3C(=O)N2c2ccccc2)n1 (stereo not drawn) | 4.41%
CCOc1cc(C(=O)NCCc2ccc(S(N)(=O)=O)cc2)cc(OCC)c1OCC | 17.9%
COC(=O)c1scc(C)c1N1C(=O)c2ccccc2C1=O | 3.5%

Compound | hERG current change (%, negative = inhibition) at 10uM
COCC(=O)Nc1cc(C)cn(Cc2c(F)cccc2Cl)c1=O | 13.1%
Cc1ccccc1S(=O)(=O)N1[C@@H](c2ccc(F)cc2)C(C(=O)O)=CC[C@H]1c1ccc(Cl)cc1 | 0.353%
CCOC(=O)C1(Cc2cccc(F)c2)CCN(C2CCOCC2)CC1 | -63.5%
COc1ccc(/C=C/C2=NN(C)C(=O)CC2)cc1 | 13.4%
CCCc1ccc2oc(C(=O)N3CCC[C@H]3CO)c(C)c2c1 | -2.59%
C=CCn1c(C)cc(C(=O)COC(=O)[C@@H](NC(=O)c2ccccc2Cl)C(C)C)c1C | -7.65%
CCc1ccc(C2CC(c3ccc(Cl)cc3)n3nc(N)nc3N2)cc1 (stereo not drawn) | -10.3%
COC(=O)c1cc2ccsc2n1Cc1nc(-c2cccc(Cl)c2)oc1C | -28.6%
CC1CCCCN1C(=S)NC(=O)c1ccco1 (stereo not drawn) | 6.05%
CN(C)c1ccc(CNC(=O)C2CCN(S(=O)(=O)c3ccc4c(c3)CCC(=O)N4)CC2)cc1 | 2.12%
CCOC(=O)c1cnn(CC2CCCCC2)c1N | 1.4%
CCCn1c(SCC(=O)c2c(C)[nH]c(C)c2C(=O)OCC)nc2ccccc21 | -26.1%
O=c1c2ccccc2ncn1CCOCCOc1ccc([N+](=O)[O-])cc1 | -64.3%
S=C(NCc1ccc(Cl)cc1Cl)Nc1ccccc1 | 10.1%
O=C(COC(=O)c1cc(S(=O)(=O)N2CCCC2)ccc1O)NCCc1ccccc1 | -7.17%
O=C(O)CSc1nnc(COc2ccccc2)n1-c1ccccc1 | -17.1%
Cc1ccc(S(=O)(=O)NNC(=O)c2ccc(F)cc2)cc1 | 19.4%
COc1cc(/C=N/Nc2nc(=O)[nH]nc2C)cc([N+](=O)[O-])c1O | 2.08%
CCCCCSc1nnc(C)c(=O)[nH]1 | 9.47%
Cc1ccc(Nc2cc(C)nc(N3CCOCC3)n2)cc1 | 6.18%
OCCCc1nc2ccccc2n1CCc1ccccc1 | -9.94%
